90 compounds from PubChem BioAssay AID463173 (ICCB-Longwood Screening Facility, Harvard Medical School, 2010) can be followed below.

Structures are written as SMILES. The campaign covered roughly 52,000 compounds. About 1,700 (3.3%) were called active. Cut-off read from the data, not from the text of the source: active = survival mostly below about 52% (no sharp cut-off); inactive = mostly above about 56%. This is one part of the list.

The subject of the assay is Wild type. The assay is described as follows: growth inhibition of S. aureus wild type versus tarO mutant, primary screen, teichoic acid synthesis inhibitors, RN4220, OD600 (AID 463173). Conditions: S. aureus RN4220 wild type/DeltatarO growth, OD600, 18 h, stronger effect = lower value, screened at 18.75 µg/mL (by protocol).
Regarding `COCCCn1c(-c2ccc(S(=O)(=O)N3CCOCC3)cc2)csc1=Nc1ccccc1`, the survival was inactive: 46%.
Next, `CC1(c2ccc(Cl)cc2)CC(C)(C)N(C(=O)c2cccc(F)c2)c2ccccc21` (stereo not given): active: 7%; `O=C(NCCN1CCCCC1)c1ccc(Cn2c(SCc3ccccc3)nc3cccnc32)cc1`: inactive: 140%.
Next, `NC(=O)C1(C(N)=O)CCC1`: inactive: 123%.
Then `O=C(Cc1ccccc1)Nc1sc2c(c1C(=O)Nc1ccc(Br)cc1)CCCC2`, with inactive: 86%; and `CC(=O)c1ccc(NS(=O)(=O)c2ccc(-n3cccn3)cc2)cc1`, with inactive: 131%; and `Cc1ccc(NC(=O)C2CCN(c3nc(-c4ccc(C(C)C)cc4)no3)CC2)c(Cl)c1`, with inactive: 71%.
On to `Cc1ccccc1NC(=O)CSc1nc(-c2ccco2)nc2cc(=O)[nH]n12`, for which the survival is inactive: 79%.
Next, `Cc1ccc(C(=O)NC2(C(F)(F)F)N=C(c3ccccc3)N(Cc3ccccc3)C2=O)cc1` (stereo not given): inactive: 76%.
`Cc1ccc(C(=O)Oc2cc(-c3ccc4c(c3)OCO4)cc(=O)c3c(C)oc(C)c23)cc1`: the survival is inactive: 114%.
`COc1ccccc1NC(=O)Cn1c(=O)n(CC(=O)NCc2ccccc2Cl)c(=O)c2sccc21`: the survival is inactive: 141%.
Next, `COc1ccc(C(=O)Oc2c(Sc3ccc(C)cc3)c(C)nn2C(C)(C)C)cc1OC`: inactive: 127%; `O=C(c1ccc2c(c1)N(Cc1ccc(Cl)cc1)C(=O)c1ccccc1S2=O)N1CCCCC1` (stereo not given): inactive: 88%.
Then `CCOc1ccc(CNC(=O)c2cc(-c3ccc(Cl)s3)nc3ccccc23)cc1`, with inactive: 89%; and `Cc1ccc2c(CNCc3ccc(C)o3)c(C(=O)O)n(Cc3ccc(F)cc3)c2c1`, with inactive: 84%.
Consider `CN(C)c1nc(NCCNS(=O)(=O)c2ccc(Cl)cc2)nc(N(C)C)n1`, for which the survival is inactive: 117%.
Then `CCOC(=O)C1CCN(C(c2ccc(C)cc2)c2c(O)cc(C)n(CCOC)c2=O)CC1` (stereo not given), with inactive: 88%; and `CCOc1ccc(-c2cc(CCCC(=O)NCCc3cc(OC)c(OC)c(OC)c3)no2)cc1`, with inactive: 59%; and `Cc1ccc(NC(=O)Cn2cc(C(=O)C3CCCCC3)c3ccccc32)cc1`, with inactive: 87%.
With `Cc1cccc(NC(=O)CCNS(=O)(=O)c2ccc3c(c2)CCN3C(=O)C2CC2)c1`, the survival was inactive: 93%.
For `COC(=O)c1cc(-c2ccc(OC)c(OC)c2)nc2ccccc12`, the survival is inactive: 106%.
Then `O=C1NC(c2ccccc2)/C(=C(\O)c2ccccc2)C1=O` (stereo not given), with inactive: 112%.
Then `CC(C)(C)NSc1nc2ccccc2s1`, with inactive: 68%; and `COc1ccc(CCNC(=O)CCCn2nc(C)c3sc4ccccc4c3c2=O)c(OC)c1`, with inactive: 81%; and `CCOc1ccc(NC(=O)Cn2c(=O)n(CCCS(=O)(=O)C3CCCCC3)c(=O)c3ccccc32)cc1`, with inactive: 85%.
Next, `Cc1ccc(NC(=O)C2CCC(CNS(=O)(=O)c3cccc4nsnc34)CC2)c(Cl)c1` (stereo not given): inactive: 78%; `COC(=O)c1c(C)oc2ccc(N(C(=O)c3ccncc3)S(=O)(=O)c3cc(C)ccc3C)cc12`: inactive: 75%; `Cc1ccc(C(=O)Nc2ccccc2)cc1S(=O)(=O)Nc1ccccc1`: inactive: 70%.
For `COc1ccc(N2CCN(C(=O)C3CCN(S(=O)(=O)c4cn(C)cn4)CC3)CC2)cc1`, the survival was inactive: 88%.
Then `Cc1ccc(OC(=O)CSc2nnc(-c3ccc4c(c3)OCO4)o2)cc1`, with inactive: 89%; and `Cc1cccc(N(C)C(=O)Cc2c(C(=O)O)[nH]c3ccccc23)c1`, with inactive: 120%; and `Cc1ccc(-n2ncc3c(N4CCC(Cc5ccccc5)CC4)ncnc32)cc1C`, with inactive: 92%.
Next, `CC(C)N(C(=O)c1cccs1)C(C)C`: inactive: 100%; `COC(=O)c1cc2occc2n1CC(=O)Nc1ccc(C)cc1Cl`: inactive: 95%; `COc1ccc(CCNc2nc3cc(OC)c(OC)cc3c3nc(-c4ccccc4)nn23)cc1OC`: inactive: 129%.
In the case of `CCOc1ccc(-c2nc(CSCC(=O)NCc3ccc(C)cc3)c(C)o2)cc1`, the survival was inactive: 73%.
Then `Cc1cccc(N2CCN(c3ncnc4c3nc3n4CCCCC3)CC2C)c1` (stereo not given), with inactive: 75%.
On to `COC(=O)c1cc(NC(=O)c2sc3ccccc3c2Cl)cc(C(=O)OC)c1`, for which the survival was inactive: 74%.
Next, `Cc1ccc(C)c(-n2nnc(-c3nc(-c4ccccc4C)no3)c2C)c1`: inactive: 91%.
Next, `O=C(C(F)F)N1CCN(c2ccccc2)CC1`: inactive: 99%; `COc1ccc(-c2nn(-c3ccc(C)cc3)c3c2cnc2ccc(C)cc23)cc1OC`: inactive: 86%.
For `Cc1cc(N)cc(C(=O)O)c1O`, the survival is inactive: 121%.
As for `COc1cccc(NC(=O)c2cc3c(-c4ccc(Cl)cc4)nn(C)c3s2)c1`, the survival was inactive: 117%.
Then `Cc1coc2cc3oc(=O)c(CCC(=O)NCc4ccccc4Cl)c(C)c3cc12`, with inactive: 87%.
Next, `CCCN1CCN(CCCNC(=O)C(CC)n2nc(C)n3c(cc4occc43)c2=O)CC1` (stereo not given): inactive: 87%; `O=C(O)c1cccc(-n2cnc3cccnc32)c1`: inactive: 74%; `O=C(NCC(c1cccnc1)N1CCN(Cc2ccccc2)CC1)C(=O)Nc1cccc(Cl)c1` (stereo not given): inactive: 82%.
Next, `CCN(CC)CCNC(=O)c1cn(CC)c2ccc(S(=O)(=O)N(C)C3CCCCC3)cc2c1=O`: inactive: 88%.
Turning to `CCC(C(=O)NC1CCCCC1)n1c(SCc2cccc(C)c2)nc2ccncc21` (stereo not given), the survival is inactive: 69%.
Then `CC(C)n1nnnc1SCC(=O)NCc1ccco1`, with inactive: 112%; and `Cn1c(C(=O)N2CCC(C(=O)NCCc3ccccc3)CC2)cc2sccc21`, with inactive: 81%.
Next, `O=C(CN(C(=O)c1ccc(Cl)nc1)C1CCCC1)NCc1ccc2c(c1)OCO2`: inactive: 104%; `CN(C(=S)SCC1=CCS(=O)(=O)C1)C1CCS(=O)(=O)C1` (stereo not given): inactive: 112%.
With `N#Cc1ccccc1CSc1nnc2ccc3ccccc3n12`, the survival was inactive: 86%.
Next, `COCc1c(Br)c(C)nc2sc3c(=O)n(-c4cccc(Br)c4)nnc3c12`: inactive: 87%; `CCN1C(=O)c2ccccc2S(=O)(=O)c2ccc(C(=O)NCc3ccc(OC)cc3)cc21`: inactive: 97%; `CC(NC(=O)c1ccco1)c1nc(-c2ccccc2)no1` (stereo not given): inactive: 83%.
`Cc1cc(=O)n(CC(=O)NC(C)c2ccccc2)c2c1c(C)nn2-c1cccc(F)c1` (stereo not given): the survival was inactive: 136%.
Then `O=C(CN(c1ccc(Cl)c(C(F)(F)F)c1)S(=O)(=O)c1ccccc1)Nc1cccnc1`, with inactive: 64%; and `CCc1ccccc1NC(=O)CSc1nnc(-c2ccccc2)c(-c2ccccc2)n1`, with inactive: 69%; and `COc1cc(OC)cc(-c2cc3nc(C)c(CCC(=O)Nc4ccccc4OC)c(C)n3n2)c1`, with inactive: 71%.
Next, `CC/C(=N/NC(=O)C1C2CCCCC21)c1ccc(O)cc1` (stereo not given): inactive: 112%; `N#CC1=C(N)OC2=C(C(=O)CCC2)C12C(=O)Nc1ccc(F)cc12` (stereo not given): inactive: 97%; `COCCNC(=O)Cn1c(=O)c2cccn2c2ccc(F)cc21`: inactive: 85%.
Then `O=C(CC1Nc2ccccc2NC1=O)Nc1ccccc1C(F)(F)F` (stereo not given), with inactive: 106%; and `Cc1ccccc1C(=O)Nc1c(C(=O)Nc2cccc(F)c2)oc2ccccc12`, with inactive: 57%.
With `CCc1nnc(NC(=O)c2nc(SC)ncc2Cl)s1`, the survival was inactive: 112%.
Then `NC(=O)CSc1nc2c(oc3ccccc32)c(=O)n1Cc1ccccc1`, with inactive: 66%; and `CCSc1oc(-c2cccs2)nc1S(=O)(=O)c1ccc(Br)cc1`, with inactive: 51%; and `CCOC(=O)c1c(-c2ccccc2)oc2ccc(N(C(C)=O)S(=O)(=O)c3ccccc3)cc12`, with inactive: 70%.
On to `O=C(NCc1ccc2c(c1)OCO2)c1ccc2c(c1)N(Cc1ccccc1F)C(=O)c1ccccc1S2=O` (stereo not given), for which the survival is inactive: 93%.
Next, `CCOc1ccc(Cn2nnc(C(=O)Nc3ccc(Cl)cc3)c2N)cc1`: inactive: 92%; `CCCN(C(=O)c1c(C)oc2ncnc(N3CCOCC3)c12)c1ccc(Cl)c(Cl)c1`: inactive: 74%; `O=S(=O)(NCC(c1ccco1)N1CCN(c2ccccc2)CC1)c1ccccc1` (stereo not given): inactive: 81%.
Next, `CCn1ccc2c(OCC(=O)Nc3ccc(C(C)=O)cc3)cccc2c1=O`: inactive: 53%; `COc1ccccc1CNC(=O)c1cc2c(-c3ccc(Cl)cc3)nn(C)c2s1`: inactive: 151%.
Then `COc1ccccc1CNC(=O)C1CCN(C(=O)c2sccc2-n2cccc2)CC1`, with inactive: 83%.
On to `CN(C1CCCCC1)S(=O)(=O)c1ccc2c(c1)c(=O)c(C(=O)NCc1ccc(F)cc1)cn2C`, for which the survival is inactive: 95%.
Next, `O=C(c1ccc2c(c1)N(Cc1ccc(Cl)cc1)C(=O)c1ccccc1S2(=O)=O)N1CCC(Cc2ccccc2)CC1`: inactive: 93%.
Next, `O=C(c1ccccc1)C(C(=O)N1CCCCC1)n1ccccc1=O` (stereo not given): inactive: 113%.
Then `Cc1ccc(S(=O)(=O)Nc2ccc3[nH]c(=O)sc3c2)cc1C`, with inactive: 73%; and `CCN(CC)Cc1cc(C(=O)O)oc1C(C)(C)C`, with inactive: 106%.
With `O=C(Nc1cc2c(cc1C(=O)c1ccc(Br)cc1)OCCO2)c1ccc(Cl)cc1`, the survival was inactive: 92%.
In the case of `Cc1ccc(Nc2nc(C(=O)N3CCC(C)CC3)cs2)cc1`, the survival is inactive: 117%.
Then `COc1cccc(-n2c(=O)c3cc(OC)c(OC)cc3n(CC(=O)Nc3ccccc3)c2=O)c1`, with inactive: 127%; and `CCOc1ccc(NC(=O)CSC2=Nc3ccccc3C3=NC(CC(=O)NCc4ccccc4OC)C(=O)N23)cc1` (stereo not given), with inactive: 136%.
Then `O=C(c1ccc2c(c1)N(Cc1ccc(F)cc1)C(=O)c1ccccc1S2(=O)=O)N1CCCCCC1`, with inactive: 92%.
Turning to `Cc1ccc(N2CC(NC(=O)c3ccco3)CC2=O)cc1` (stereo not given), the survival is inactive: 80%.
Consider `Cc1ccc(C)c(S(=O)(=O)c2cn(C)c3cc(F)c(F)cc3c2=O)c1`, for which the survival is inactive: 81%.
Then `CCc1cccc(NC(=O)c2c(N3CCCC3=O)c3cc(C)ccc3n2C)c1`, with inactive: 91%.
